# From PubChem BioAssay AID463173 (ICCB-Longwood Screening Facility, Harvard Medical School, 2010)
# In all, about 52,000 compounds went through this assay and about 4,300 (8.3%) were called active. No stated cut-off is given here; in the data, active means survival mostly below about 52% (no sharp cut-off); inactive means mostly above about 56%. Some of the results follow.
# Tested on: DeltatarO mutant
# Experiment: growth inhibition of S. aureus wild type versus tarO mutant, primary screen, teichoic acid synthesis inhibitors, RN4220, OD600 (AID 463173)
# Conditions: OD600, 18 h, hits give low values, screened at 18.75 µg/mL (by protocol)
row,SMILES,survival
1,CCn1ccc2cc(S(=O)(=O)N3CCCN(C(=O)Nc4cccc(Cl)c4)CC3)ccc21,inactive: 83%
2,Cc1cc(NC(=O)c2cccnc2)ccc1NC(=O)c1ccco1,inactive: 102%
3,COc1ccc(C2=NN(CC(=O)NCCc3ccc(OC)c(OC)c3)C(=O)CC2)cc1,inactive: 100%
4,COc1ccc(N(C)C(=O)c2cn(C3CCCCC3)c(=O)c3c2c2ccccc2n3C)cc1,inactive: 67%
5,Cc1cc2n(n1)C(c1cc(C(C)(C)C)c(O)cc1O)Nc1ccccc1-2 (stereo not given),inactive: 141%
6,CCOc1ccc(OCC)c(NC(=O)c2nnn(CC(=O)Nc3ccc(C)cc3C)c2N)c1,inactive: 104%
7,CSc1cccc(NC(=O)CN2C(=O)COc3ccc(Cl)cc32)c1,inactive: 50%
8,CCOc1ccc(C(=O)N2CCC(c3nc4ccccc4o3)CC2)cc1,inactive: 81%
9,CCOC(=O)C1CCN(c2ncnc3c2oc2ccccc23)CC1,inactive: 113%
10,CCCCOc1ccc(C(=O)Nc2cccc(-c3nc4cccnc4s3)c2)cc1,inactive: 92%
11,COc1ccc(NC(=O)COc2ccc(-c3nn(C)c(=O)c4ccccc34)cc2)cc1,inactive: 75%
12,COc1ccccc1CNC(=O)C(NS(=O)(=O)c1cccs1)C(C)C (stereo not given),inactive: 58%
13,Cc1ccc(-c2nc3sc(CCNC(=O)c4ccc(Br)o4)c(C)n3n2)cc1,inactive: 84%
14,COc1ccc(-c2cc3ccc(O)c(CN4CCOCC4)c3oc2=O)cc1OC,inactive: 116%
15,COc1ccccc1-c1nnc(SCC(=O)c2ccc(Cl)cc2)n1-c1ccccc1,active: 1%
16,CCOc1ccc(NC(=O)CSc2nc3c(oc4ccccc43)c(=O)n2-c2ccccc2C)cc1,inactive: 79%
17,CC(C)N=C1SC(CC(=O)Nc2ccccc2)C(=O)N1C(C)C (stereo not given),inactive: 93%
18,COc1ccccc1NC(=O)C1=C(C)Nc2ncnn2C1c1ccccc1C(=O)O (stereo not given),inactive: 73%
19,COc1ccc(-n2c(=O)c3c4c(sc3n(Cc3ccc(F)cc3)c2=O)CCCC4)c(OC)c1,inactive: 47%
20,COc1cccc(CNC(=O)c2cc3c(s2)-c2ccccc2OC3)c1,active: 42%
21,COc1ccc(NC(=O)c2cc(C3CC3)nc3c2c(C)nn3-c2ccccc2)cc1,inactive: 53%
22,COc1ccc(S(=O)(=O)N2CCC(O)(c3cccnc3)CC2)cc1OC,inactive: 58%
23,CCOc1ccccc1C(=O)Nc1ccc2nc(N(CC)CC)cc(C)c2c1,active: 65%

row,SMILES,survival
1,Cc1ccc(OCC(=O)Nc2nnc(SCc3cc(=O)c4ccccc4[nH]3)s2)cc1,inactive: 99%
2,Cc1cc(N2CCCCC2)nc2ccc(NC(=O)c3cccc(Cl)c3)cc12,active: 0%
3,CCOc1ccc(CNS(=O)(=O)c2cc3c(cc2C)NC(=O)CO3)cc1OC,inactive: 115%
4,CC1(C)CC(NS(=O)(=O)c2ccc(S(=O)(=O)N3CCOCC3)cc2)CCO1 (stereo not given),inactive: 62%
5,CCOC(=O)c1c(S(=O)(=O)N2CCCC(C(=O)Nc3cccc(Cl)c3)C2)c(C)n(C)c1C (stereo not given),inactive: 91%
6,CCCCN(CC)CCCNC(=O)CCN1N=C(c2ccc(OC)cc2)CCC1=O,inactive: 96%
7,COc1ccccc1NC(=O)C(=O)NCCc1csc(-c2cccc(F)c2)n1,inactive: 102%
8,O=C(NCCc1ccccc1)c1cc(-c2ccc(Cl)cc2)on1,inactive: 79%
9,COc1cccc(NC(=O)Nc2cccc(-c3cn4cccnc4n3)c2)c1,inactive: 78%
10,CCOc1ccc(-c2nnc(Nc3ccc(S(N)(=O)=O)cc3)c3ccccc23)cc1,inactive: 56%
11,CCCOC1(C(F)(F)F)NC(=O)N(c2ccc(Cl)cc2)C1=O (stereo not given),inactive: 66%
12,Cc1cc(C)c(NC(=O)CSc2nc(=O)[nH]c3c2CCCC3)c(C)c1,inactive: 83%
13,Cc1sc2ncn(CC(=O)N(C)c3ccc(Br)cc3)c(=O)c2c1S(=O)(=O)N1CCC(C)CC1,inactive: 70%
14,Cc1nc2c(C(=O)NCc3ccccc3)c[nH]n2c(=O)c1Cc1ccccc1Cl,inactive: 49%
15,Cc1nnc(SCC(=O)N(C(C)C)C(C)C)[nH]c1=O,inactive: 76%
16,CC(=O)N1CCc2cc(S(=O)(=O)CCC(=O)N3CCN(c4cccc(C)c4C)CC3)ccc21,inactive: 100%
17,CCN1CCN(CCCNC(=O)c2cnn(-c3ccccc3)c2C2CCN(C(=O)OC(C)(C)C)CC2)CC1,inactive: 72%
18,CCOC(=O)c1ccc(Nc2nc3ccccc3nc2NS(=O)(=O)c2ccc(Cl)cc2)cc1,active: 37%
19,O=C(CSc1nnc(CNc2cccc(Cl)c2)o1)Nc1cccc(Cl)c1,inactive: 101%
20,COc1ccc(N2CCN(S(=O)(=O)CCNC(=O)C(c3ccccc3)c3ccccc3)CC2)cc1,inactive: 79%
21,Sc1ccc2oc3ccc(S)cc3c2c1,inactive: 93%
22,Cc1ccc(-c2c(CN3CCN(c4cccc(C(F)(F)F)c4)CC3)csc2C)cc1,inactive: 76%
23,COc1cccc(C2C=C(c3ccc(C)c(C)c3)Nc3nnnn32)c1OC (stereo not given),inactive: 72%

row,SMILES,survival
1,O=C(NC(=O)c1ccc(F)cc1)Nc1ccc(-c2cc(C(F)(F)F)nn2-c2ccccc2)cc1,inactive: 61%
2,O=C(NCCc1csc2nc(-c3ccccc3F)nn12)c1ccco1,inactive: 79%
3,Cc1oc2c(c(C)cc3oc(=O)c(CC(=O)NCCc4ccccc4)c(C)c32)c1C,inactive: 100%
4,CN1C(C(=O)c2ccccc2)=C(OC(=O)c2ccc(Br)cc2)c2ccccc2S1(=O)=O,inactive: 123%
5,Cc1ccc(NC(=O)Nc2ccc3c(c2)N(C)C(=O)c2ccccc2S3)c(C)c1,inactive: 105%
6,COc1ccc(NC(=O)c2cc3c(=O)n(Cc4ccco4)ccc3nc2C)cc1,inactive: 58%
7,CCOC(=O)c1c(C)[nH]c(C)c1S(=O)(=O)NCC(=O)Nc1cc(C)ccc1OC,inactive: 60%
8,COc1ccc(-n2ccnc2SCC(=O)Nc2ccc(F)cc2F)cc1,inactive: 100%
9,Cc1cc2nn(-c3ccccc3)nc2cc1NC(=O)c1cccc2c(Cl)cccc12,active: 43%
10,O=C(NCCc1ccccc1)c1ccc(CS(=O)(=O)c2ccc(Br)cc2)o1,inactive: 129%
11,Cc1ccc2onc(CNC(=O)N3CCN(c4cccc(C)c4C)CC3)c2c1,inactive: 48%
12,COc1ccc(-c2cc(C(=O)Nc3cccnc3Cl)no2)cc1OC,inactive: 135%
13,CCSc1nnc2n(-c3cccc(C)c3)c(=O)c3c4c(sc3n12)CCCC4,inactive: 71%
14,O=C(CN1CCC(N2CCCCC2)CC1)NC(c1ccccc1)c1ccccc1,inactive: 98%
15,COc1cc(NC(=O)c2ccc(C)cc2)ccc1NC(=O)c1cc2ccccc2o1,inactive: 54%
16,Cc1ccc(C)c(CN2C(=O)C(=O)c3ccccc32)c1,inactive: 92%
17,CCOC(=O)C1=C(C)C(c2ccc(OC)cc2)NC(=O)N1 (stereo not given),inactive: 94%
18,CCCC(=O)c1cc(F)c(N2CCOCC2)cc1C,inactive: 73%
19,O=C1CSC2(C(=O)N(Cc3ccccc3F)c3ccccc32)N1c1ccc(F)cc1 (stereo not given),inactive: 78%
20,O=S(=O)(/C=C/c1ccccc1)N1CCOCC1,inactive: 67%
21,CCOc1ccc(-c2nc(SCC(=O)Nc3ccc4c(c3)OCO4)c(-c3ccc(F)cc3)[nH]2)cc1,inactive: 84%
22,Cc1nc2cccnc2n1-c1cccc(C(=O)N2CCN(c3ccc(Cl)cc3)CC2)c1,inactive: 85%
23,CCC(=O)N1c2ccccc2CC1C(=O)NCc1ccc(OC(C)C)cc1 (stereo not given),inactive: 97%

row,SMILES,survival
1,CCN(CCCNC(=O)Cn1ncc2c([nH]c3ccc(C)cc32)c1=O)c1cccc(C)c1,inactive: 83%
2,COc1ccc(Br)cc1CN1C(=O)c2ccccc2C1C(=O)NC1CCCCCC1 (stereo not given),inactive: 97%
3,CCOC(=O)c1c(C)c(-c2ccccc2)n(CC(=O)NC2CCCCC2)c1C,inactive: 114%
4,COc1cc(OC)c(OC)cc1CN1CCN(S(=O)(=O)c2ccc(NC(C)=O)cc2)CC1,inactive: 79%
5,Cc1cccc(-c2nnc(C3CCN(S(=O)(=O)c4cccc(Cl)c4)CC3)o2)c1,inactive: 70%
6,COc1cc(C2NC(=O)c3c(sc4c3CCN(C)C4)N2)cc(OC)c1OC (stereo not given),inactive: 53%
7,CCOc1cc2[nH]c(=O)n(Cc3ccc(C(=O)N4CCN(c5cccc(Cl)c5)CC4)cc3)c(=O)c2cc1OCC,inactive: 80%
8,CCc1ccc(CNC(=O)C2CCN(c3nn4cc(-c5ccc(F)cc5)nc4s3)CC2)cc1,inactive: 78%
9,CCc1ccc(NC(=O)C2CCN(c3nn4c(=O)cc(C)nc4s3)CC2)cc1,inactive: 101%
10,Clc1ccc(-c2noc3ncnc(NCCc4ccccc4)c23)cc1,inactive: 78%
11,O=C(Nc1ccc2c(c1)CCCN2C(=O)c1cccs1)c1ccccc1Cl,inactive: 70%
12,CCC(=O)Nc1nnc(C(C)(C)C)s1,active: 51%
13,CCOC(=O)c1c(C)[nH]c(C)c1S(=O)(=O)N1CCCC(C(=O)N2CCN(c3cccc(C)c3C)CC2)C1 (stereo not given),inactive: 102%
14,COc1ccc(Cl)cc1NC(=O)c1nn(-c2ccc(C)cc2)c(=O)n(C)c1=O,inactive: 80%
15,COc1cc(NC(=O)Cn2cnc(S(=O)(=O)N3CCCC3)c2)cc(OC)c1OC,inactive: 98%
16,Cc1cccc(CNC(=O)CS(=O)(=O)c2cccc3nsnc23)c1,inactive: 78%
17,CCN(C(=O)c1cnc2ccc(C)cn2c1=O)c1ccccc1,inactive: 102%
18,CCOC(=O)C1CCN(C(c2cccc(F)c2)c2c(O)cc(C)n(CCOC)c2=O)CC1 (stereo not given),inactive: 135%
19,COCCNC(=O)c1cnc2sc(N3CCC(C)CC3)nn2c1=O,inactive: 86%
20,CCC(=O)N(CCC(c1ccccc1)c1ccc2c(c1)OCO2)Cc1ccc(OC(C)C)cc1 (stereo not given),active: 0%
21,CCOC(=O)c1c(NC(=O)c2ccc(S(=O)(=O)N(CC(C)C)CC(C)C)cc2)sc2c1CCN(C(=O)OCC)C2,inactive: 124%
